# About 540 (0.36%) of roughly 150,000 compounds showed an effect of 50% or more. Some of the results follow.
# System: Plasmodium falciparum
# Assay: Primary screen in NF54 nanoGlo assay, in single point, at 2uM, 72h; a lower Z score goes with more inhibition
# Format: functional, Erythrocyte
# Conditions: timepoint 72 hour
Compound,% Inhibition [%],Z score
CCc1ccc(-c2cc(C(=O)N3CCN(c4ncccn4)CC3)c3ccccc3n2)s1,-6,1.2
Cc1ncn(C)c1C(=O)NCCCOc1cccnc1,3,-0.5
O=C(NCCc1ccccn1)N1CCC[C@H]1c1ccc2c(c1)OCCO2,3,-0.4
Cc1cc(N2CCC(NC(=O)c3cnn(C)c3)CC2)c(C#N)c(C)n1,-2,0.29
CN(C)C(=O)c1ccc(-c2ccc(C(=O)N3CCc4n[nH]cc4C3)cc2)o1,-15,2.32
Cn1c(C(F)(F)F)nn(C2CCN(S(=O)(=O)c3ccc4c(c3)CCO4)CC2)c1=O,-11,1.2
CCc1ccc(CS(=O)(=O)NC(=O)c2cn3ccnc3s2)cc1,39,-5.57
CCOc1cc(N2CC=C(c3cccnc3)C2)nc(C)n1,-2,0.29
CC(C)CNC(=O)NC(=O)CN1CCCC[C@@H]1C,-4,0.46
Cc1cccc(C(=O)N[C@H]2CCOC[C@H]2C2CCOCC2)c1F,-8,0.86
O=C(Nc1ccccc1Cl)[C@@H]1CN(C(=O)Cc2cccs2)CCO1,-16,2.87
Cc1cc(NC(=O)[C@H]2CCCN(C(=O)c3ccc(Cl)c(Cl)c3)C2)no1,-2,0.17
COCCCOC1CN(C(=O)c2ccoc2C)C1,32,-3.58
CC(C)(C)OC(=O)N1CCC(=O)C12CCC2,6,-0.89
COc1ccc(OC)c(N2C(=O)c3cccnc3[C@H]2Nc2ccc3c(c2)OCCO3)c1,-1,0.09
O=C(C1CCN(c2ccc(F)c(F)c2)C1=O)N1CC2CCCC2C1 (configuration not stated),-4,0.67
C[C@H](NC(=O)NCCc1nccn1C(F)F)c1nccs1,16,-1.99
Cc1nc(C(C)(C)C)sc1[C@H](C)NCc1nccn1CC(C)C,1,-0.1
C[C@H](NC(=O)c1ccc(-c2noc(C3CC3)n2)cc1)c1n[nH]c(N)n1,-4,0.79
N#CC1CCN(C(=O)NC2CCCC2)CC1,-18,2.24
CC(C)NC(=O)N1C[C@H]2CCCC(=O)N(Cc3cccc(F)c3)[C@H]2C1,36,-0.74
CCS(=O)(=O)c1ccc(N2CC(C)CC2c2cccnc2)cc1 (configuration not stated),5,-0.5

Compound,% Inhibition [%],Z score
CCc1nn(-c2ccc(F)cc2)c(N2CCN(C(C)C)CC2)c1CN(CC(C)C)C(=O)C1CCCCC1,-16,2.24
Cc1ccc2nonc2c1S(=O)(=O)Nc1ccc(F)cc1,10,-1.34
Cc1nc[nH]c1CN(C)Cc1c(C)noc1C,7,-0.96
CNc1nc(C(N)=O)c(NC(=O)CCc2c(C)noc2C)s1,-10,0.94
O=C(c1cc(C2CC2)[nH]n1)N1CCc2nocc2C1,10,-1.42
NC(=O)C1(CNc2ncccc2Cl)CCOCC1,-1,0.14
CC1=CCCN(C(=O)Nc2ncc(C3CCOCC3)s2)C1,-1,0.28
Cn1ccnc1N1CCN(c2ncc(Cl)cn2)CC1,-14,2.61
Cc1nn(C)c(C)c1CCC(=O)N1CCNC(=O)[C@@H](CC(C)C)NC(=O)c2cc(F)ccc2OCCn2cc(nn2)CC1,-19,2.13
O=C(c1nc2ccccn2c1F)N1CCC(c2nnc3n2CCCCC3)CC1,-10,1.8
CS(=O)(=O)c1ccc(C(=O)Nc2cccnn2)cc1,-3,0.52
Cc1noc2ncnc(NCCN3CCOC3=O)c12,-10,1.05
CCN(CCC(F)(F)F)C(=O)c1ccc(C)s1,2,-0.3
C#CCCCCC(=O)Nc1cnccc1N1CCOCC1,-9,0.8
CC(C)C[C@H](NC(=O)N1C2CCC1CC1(CC1)C2)C(=O)N1CCOCC1,-3,0.47
Cc1cnc(C[C@H]2CCCN(Cc3ccccc3)C2)n1Cc1ccccc1,6,-0.92
CCN1CCCCc2cc(C(=O)N[C@H]3CCS(=O)(=O)C3)sc21,-2,0.2
Cc1cccc(N(CC(=O)Nc2ccc(OC[C@H]3CCCCO3)cc2)S(C)(=O)=O)c1,-25,2.55
CC(C)(C)OC(=O)NC1CCN(CC(C#N)CCC#N)C1 (configuration not stated),-11,1.41
CN(Cc1cc2n(n1)CCNC2)Cc1nc(-c2ccccc2)cs1,-12,1.54
O=C(Cc1cccs1)NCCc1nc(C2CC2)cc(C(F)(F)F)n1,-9,1.03
CC(C)(NCc1cc(Cl)sc1Cl)c1nnc2n1CCCC2,4,-0.69

Compound,% Inhibition [%],Z score
COCCCN(C)CCNc1ncc(Cl)cc1F,-4,0.49
O=C1c2ccccc2C(=O)N1CCCc1nc(C2CCCC2)no1,-11,1.27
Fc1ccccc1Oc1nc(N2CCCCC2)nc2c1CN(Cc1ccc3c(c1)OCO3)CC2,-5,0.68
O=C(CCc1c[nH]c2ccccc12)N1CC(N2CC(F)(F)C[C@H]2CO)C1,-8,0.87
O=C(OCC(=O)N1CCCc2ccccc21)c1cnccn1,-10,1.86
CCCc1noc([C@H](C)Nc2ccc(OC)nc2)n1,10,-1.26
Nc1nc(NC2CC2)cc(N2Cc3cnn(CCO)c3C2)n1,-17,2.19
O=C(Nc1cccc(F)c1)N1CCC2(CC1)N[C@@H](Cc1ccccc1)C(=O)N2Cc1ccccc1,-11,1.32
COCc1nc(CCNC(=O)C2CCC2)no1,-4,0.45
Cc1cc(S(=O)(=O)N2CCC3(CC2)CNC(=O)O3)c(Cl)cc1F,-4,0.85
O=C(NCCc1ccncc1)c1c[nH]c2ccc(Cl)cc2c1=O,8,-1.03
CC1=C[C@@H](CN2CCN(C)CC2)[C@H](C(C)C)C[C@H]1Cc1nnc(COc2ccc(F)cc2)o1,-5,0.7
CC(C)[C@H]1CN(c2ccncc2)C[C@@H]1C(=O)O,0,0.01
O[C@@]1(CN2CCCCC2)CCN(Cc2ccc(F)c(Cl)c2)C1,-9,1.8
COc1ncccc1-c1ccc(-c2nnc(N)s2)cc1,-8,0.75
O=C(Nc1ccc2oc(-c3ccccc3F)nc2c1)c1sc2ccccc2c1Cl,-19,2.62
C=CCNC(=O)c1csc(COc2ccc3c(c2)[C@H](c2cccc(F)c2)N(C(=O)C(C)(C)C)CC3)n1,3,-0.36
N#Cc1cn[nH]c1NC(=O)C(=O)NCc1ccco1,-3,0.35
CCN(C(=O)c1ccc(Br)cc1Cl)c1ncc[nH]1,-16,2.46
FC(F)(F)Cn1ccnc1COc1c(Br)cccc1Br,-12,2.05
COc1cc(OC)c(NC(=O)COc2ccccc2-c2nc3ccccc3s2)cc1Cl,35,-4.45
O=C(c1ccoc1)N1CC(C(F)(F)F)C1,-11,1.58

Compound,% Inhibition [%],Z score
COc1ccc(Cc2nc3ccccc3n2CC(=O)N2CCCCCC2)cc1,-9,1.23
CCN(CC)c1cc2c(cc1F)c(=O)c(S(=O)(=O)c1cccc(Cl)c1)cn2Cc1ccc(F)cc1,-12,1.45
CCCN(Cc1c(C(C)C)nn(-c2ccccc2)c1N(C)C)C(=O)NCC,-1,0.1
c1coc(-c2noc(CN3CCN(c4nccs4)CC3)n2)c1,-10,2.06
COCCn1c(N)c(C(=O)CN2CC(C)CC(C)C2)c(=O)[nH]c1=O (configuration not stated),11,-1.42
CC(C)(C)c1ccc(S(=O)(=O)Nc2ccc(C(=O)N3CCN(c4ncccn4)CC3)cc2)cc1,0,0.04
CC1CCC(NS(=O)(=O)c2ccc3c(c2)CCCN3C(=O)C2CCC2)CC1 (configuration not stated),-9,1.22
CC(C)(C)c1nc(CN2CCn3cncc3C2)n[nH]1,-15,2.42
O=C([C@@H]1CC=CCC1)N1CCN(c2ccc(-n3cncn3)nn2)CC1,13,-1.63
Cc1cccc(NC(=O)N[C@H](CO)C(C)C)c1Br,-1,0.14
CN(Cc1ccco1)C(=O)c1ccc2c(c1)N(C)C(=O)[C@@H]1CCCCN21,-1,0.11
CC1CC(C(=O)O)CC(C)N1Cc1cccc2nsnc12 (configuration not stated),-5,1
Cc1noc(C)c1S(=O)(=O)Nc1ccc(Oc2ccccc2)cn1,7,-1.16
CNC(=O)c1ccc(CNC(c2ccc(Cl)cc2)C2CN(C)CCO2)cc1 (configuration not stated),-11,1.29
C[C@H](NCc1nc(C2OCCO2)cs1)C1CC1,-19,2.32
O=C(CNC(=O)c1ncccc1Oc1ccccc1)Nc1cccnc1,-17,1.49
CCN(C(=O)c1cccc(-c2ccoc2)c1)c1ccncc1,-3,0.24
COc1ccc(-c2nc3ccc(C(=O)NC4CCCC(C)C4C)cc3nc2-c2ccc(OC)c(OC)c2)cc1OC (configuration not stated),24,-2.87
COCCCCC(=O)NCC1(O)CCCCC1,12,-2.16
CC1CC1C(=O)Nc1ccc2c(c1)OC1(CCCCC1)O2 (configuration not stated),3,-0.48

# From ChEMBL document CHEMBL4888484, “Replenishing the malaria drug discovery pipeline: Screening and hit evaluation of the MMV Hit Generation Library 1 (HGL1) against asexual blood stage Plasmodium falciparum ,using a nano luciferase reporter read-out” (2022)
